Hit rate of the full screen: of about 340,000 compounds, about 12,000 (3.5%) were called active. Inconclusive results, whose numbers are uncertain, are shown with a selection of clear calls. Calls come from the whole dose curve; as a rule, active = well fitted inhibition curve with a large enough effect; inconclusive = small, poorly fitted or top-dose-only effect, or another doubt; inactive = no such curve, though single readings can be large or run the other way. No potency is given beside an inconclusive call; the fits are too rough.
Experiment: qHTS Assay for Inhibitors of Hepatitis C Virus (HCV)
Conditions: Huh7.5.1 HCVcc-Cre (HCVcc is cell-culture hepatitis C virus) infection, luciferase reporter, 44 h; series mostly up to 41.8 µM
Summary of the method: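 Antiviral activity was scored by luciferase reporter output from cells infected with HCVcc-Cre (~0.5 moi) in presence of compound, 44 h infection period, cells seeded 1,000/well 4 h prior.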
Potency is the fitted concentration of half-maximal effect; tags give direction and shape of the fitted curve.

Row | Structure (SMILES) | Potency
1 | Cc1nc2ccc(NC(=O)c3ccc(Cl)nc3)cc2s1 | inconclusive [inhibitor, single point]
2 | Cc1ccc2nc(-c3ccc(NC(=O)C(C)Sc4nncs4)cc3)sc2c1 (stereo unspecified) | inconclusive [inhibitor, partial curve]
3 | O=C1OCCC1Sc1nnnn1-c1ccc(Cl)cc1 (stereo unspecified) | inconclusive [inhibitor, single point]
4 | C(#CCN1CCCC1)CC(c1ccccc1)c1ccccc1 | inconclusive [inhibitor, single point]
5 | CCOc1ccc(CNC(=O)CCC(=O)N2Cc3ccccc3Oc3ncccc32)cc1 | inactive
6 | CCN(CC)CC(O)CN(c1ccccc1)S(=O)(=O)c1ccc2ccccc2c1 (stereo unspecified) | inactive
7 | CC1(C)Cc2nc(Cl)c(C#N)cc2CO1 | inactive
8 | O=c1cc(CN2CCCCCC2)nc2sccn12 | inactive
9 | O=C(Nc1ccccn1)C1CCN(S(=O)(=O)c2ccc3ccccc3c2)CC1 | inactive
10 | Nc1nc(COc2ccc3ccccc3c2)cs1 | inconclusive [inhibitor, partial curve]
11 | COc1ccc(OCC(=O)N2CCN(C(=O)c3cccc4ccccc34)CC2)cc1 | inactive
12 | Cc1nn(-c2ccccc2)c(Cl)c1C(=O)NCCCCNC(=O)c1c(C)nn(-c2ccccc2)c1Cl | inconclusive [inhibitor, single point]
13 | O=Cc1ccc(C(=O)OCC(=O)NCc2ccco2)cc1 | inactive
14 | CCOc1ccc2[nH]cc(C(=O)NCc3ccccc3)c(=O)c2c1 | inconclusive [inhibitor, partial curve]
15 | COc1ccc(C(=O)/C(=C\c2ccco2)N2C=CC=CC2=C(C#N)C#N)cc1 | active: 11.2 µM
16 | CCC(C)NC(=O)CCn1ccc2cc(S(=O)(=O)N3CCCC3)ccc21 (stereo unspecified) | inconclusive [inhibitor, single point]
17 | CCCCNC(=O)c1cn(CC)c2cc(N3CCN(C(=O)c4ccco4)CC3)c(F)cc2c1=O | inconclusive [inhibitor, full curve]
18 | CC1CCCN(C(=O)c2ccc(COc3ccccc3Br)cc2)C1 (stereo unspecified) | inconclusive [inhibitor, full curve, poor fit]
19 | CC(C)=CC(=O)NCc1c(Cl)cccc1-n1cccc1 | inconclusive [inhibitor, full curve, poor fit]
20 | O=C(CN(Cc1ccc(Cl)cc1)C(=O)c1csnn1)NCc1ccc(F)cc1 | inconclusive [inhibitor, single point]
21 | Fc1ccc(N2CCN(c3ncnc4c3nnn4Cc3ccccc3Cl)CC2)cc1 | inconclusive [inhibitor, single point]
